# Experimental data as given in PubChem BioAssay AID588855 (National Center for Advancing Translational Sciences (NCATS), 2011).
# About 5,000 (1.2%) of roughly 410,000 compounds were called active. The inconclusive results got no clear call from the source; some entries with a clear call stand among them for comparison. Calls come from the whole dose curve; as a rule, active = well fitted inhibition curve with a large enough effect; inconclusive = small, poorly fitted or top-dose-only effect; inactive = no such curve, though single readings can be large or run the other way. Where the call is inconclusive, the potency comes from a doubtful curve fit.
# Experiment: qHTS for Inhibitors of TGF-b; note: nearly all actives have a fitted effect of over 65% in size
# Conditions: HepG2 CAGA-GFP TGF-b/SMAD3 reporter, GFP fluorescence, 18 h, TGF-beta stimulated, 500 pg/mL final; series mostly up to 46.1 µM
# Procedure, shortened: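 HEPG2 CAGA-GFP, 1000 cells/well; 2 h settle, 37 C; cpd via pin tool; TGF-b 500 pg/mL final; 18 h, 37 C; GFP imaging ex488/em500-530; %Activity normalised to -TGF-b and +DMSO controls; CRC fit, curve class.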
# Potency is the fitted concentration of half-maximal effect; tags give direction and shape of the fitted curve.
row,SMILES,Potency
1,CCOc1ccc(Cn2c(CNS(=O)(=O)c3ccc(CC)cc3)nc3cccnc32)cc1,"inconclusive: 35.5 µM [inhibitor, single point]"
2,C=CC[C@@H](Cc1ccc(F)cc1)C(=O)OC[C@@H]1CCCN1C(=O)[C@H](CC=C)CC(=O)NCCO,"inconclusive: 7.08 µM [inhibitor, partial curve, poor fit]"
3,CC(C)n1c(C(=O)OCC(=O)NCc2ccc3c(c2)OCO3)cc2sccc21,"inconclusive: 35.5 µM [inhibitor, single point]"
4,Fc1ccc(C(CCNCc2cccs2)c2ccco2)cc1 (configuration not stated),"inconclusive: 5.62 µM [inhibitor, partial curve, poor fit]"
5,Cc1ccc(NC(=O)c2ccc(N(Cc3ccccc3)S(C)(=O)=O)cc2)cc1,"inconclusive: 22.4 µM [inhibitor, single point]"
6,Clc1ccc2nc(-c3ccco3)c(Cc3ccsc3)n2c1,"inconclusive: 15.8 µM [inhibitor, single point]"
7,COC/C=C/C1=CC2=CC(=O)C(C)(OC(=O)C3CCCC3)C(=O)C2=CO1 (configuration not stated),"inconclusive: 0.562 µM [inhibitor, partial curve, poor fit]"
8,CN(C)CCN(C)c1cc2c(c3c1ccn3C)C1CCC2O1 (configuration not stated),inactive
9,COc1ccc(C)cc1NC(=O)CNC(c1ccccc1)c1ccc(C)cc1 (configuration not stated),"inconclusive: 22.4 µM [inhibitor, single point]"
10,CC(C)CN(C(=O)COC(=O)C1CC1)c1c(N)n(Cc2ccccc2)c(=O)[nH]c1=O,inactive
11,CCOc1ccccc1NC(=O)Nc1ccsc1C(=O)OC,inactive
12,CCC(CC)C(=O)Nc1cccc(C(=O)Nc2nnc(C)s2)c1,inactive
13,Cc1c(C(=O)Nc2cccc(C#N)c2)sc2nc3n(c(=O)c12)CCCCC3,inactive
14,S=C(NCCc1ccccc1)N/N=C/c1cccc(Cl)c1Cl,"inconclusive: 35.5 µM [inhibitor, single point]"
15,COc1ccc(CNC(=O)c2cc3oc4ccccc4c3n2C)cc1OC,"inconclusive: 31.6 µM [inhibitor, single point]"
16,CC(C)(C)c1ccc(Cn2cnc(-c3ccc([N+](=O)[O-])cc3)c2)cc1,active: 8.91 µM
17,CN(CC(=O)Nc1ccc(N2CCOCC2)cc1)C(=O)CCc1cc(C(C)(C)C)c(O)c(C(C)(C)C)c1,"inconclusive: 22.4 µM [inhibitor, single point]"
18,CCc1cccc(C)c1NC(=O)CN1C(=O)c2ccccc2Sc2ncccc21,inactive
19,Cc1ccccc1NC(=O)Nc1nc(CN(C)C)cs1,inactive
20,COc1cccc(C=O)c1OC(=O)N1CCOCC1,inactive
21,CCNC(=O)C1(C)CCCN1Cc1c(F)cccc1F (configuration not stated),"inconclusive: 20 µM [inhibitor, single point]"
22,O=C(O)c1c(C(=O)N2N=C3/C(=C/c4ccccc4)CCCC3C2c2ccccc2)cccc1[N+](=O)[O-] (configuration not stated),"inconclusive: 35.5 µM [inhibitor, single point]"
23,COC(=O)c1sc2cccc(F)c2c1S(=O)(=O)Nc1cc(C)c(Cl)cc1OC,"inconclusive: 10 µM [inhibitor, partial curve, poor fit]"

row,SMILES,Potency
1,CN(C)CCNC(=O)c1ccc(COc2ccc(Cl)cc2Cl)cc1,"inconclusive: 35.5 µM [inhibitor, single point]"
2,COc1ccc(CCNC(=O)CSCc2nc(-c3cccc(C)c3)oc2C)cc1OC,"inconclusive: 12.6 µM [inhibitor, single point]"
3,Cc1nnc(SCC(=O)NNC(=O)c2ccccc2)n1N,inactive
4,O=C(NC1CCCC1)c1ccc(CSc2nc3cccnc3n2Cc2ccccc2)cc1,active: 17.8 µM
5,CC1(C)OC(=O)C(=NNc2ccc(Cl)cc2)C(=O)O1,"inconclusive: 7.08 µM [inhibitor, full curve, poor fit]"
6,N#CC1=C(N)Oc2c(ccc3ccccc23)C1c1cccs1 (configuration not stated),"inconclusive: 11.2 µM [inhibitor, partial curve]"
7,COc1ccc(NC(=O)CN(C)CC(=O)N2CCCCCC2)cc1,inactive
8,O=C(Nc1ccc(F)c(Cl)c1)Nc1csc2ccccc12,"inconclusive: 7.08 µM [inhibitor, partial curve, poor fit]"
9,COc1cc(NC(=O)c2ccco2)c(C(=O)OCC(=O)c2c[nH]c3ccccc23)cc1OC,"inconclusive: 35.5 µM [inhibitor, single point]"
10,O=C1OC2(CCCCC2)OC(=O)C1=CNc1nc2ccccc2s1,"inconclusive: 5.62 µM [inhibitor, single point]"
11,Cn1c(=O)c2cc(C(=O)Nc3cccc(C#N)c3)sc2c2ccccc21,"inconclusive: 25.1 µM [inhibitor, single point]"
12,Cc1ccc(Cl)cc1NC(=O)C(NS(=O)(=O)c1cccs1)c1ccccc1 (configuration not stated),"inconclusive: 35.5 µM [inhibitor, single point]"
13,O=C(Nc1nc2ccc(S(=O)(=O)N3CCCC3)cc2s1)c1cccs1,"inconclusive: 35.5 µM [inhibitor, single point]"
14,O=C(NCc1cccc(C(F)(F)F)c1)c1cc(Cl)ccc1Cl,"inconclusive: 15.8 µM [inhibitor, single point]"
15,O=C(NCC1CCCCN1)c1cc(OCC(F)(F)F)ccc1OCC(F)(F)F (configuration not stated),inactive
16,O=c1cc(CO)[nH]cc1OCc1ccccc1,"inconclusive: 6.31 µM [inhibitor, single point]"
17,O=C(NC1c2ccccc2-c2ccccc21)c1ccco1,"inconclusive: 22.4 µM [inhibitor, single point]"
18,CN(C)CCCNC(=O)c1ccccn1,inactive
19,N#Cc1c(NC(=O)CSc2nc3c(c(C(F)(F)F)n2)CCc2ccccc2-3)sc2c1CCCC2,"inconclusive: 3.98 µM [inhibitor, partial curve, poor fit]"
20,Cn1c(CNC(=O)OC(C)(C)C)nnc1SCC(=O)N1CCOCC1,inactive
21,CC(C)Cn1c(C(C)C)nc([N+](=O)[O-])c1S(=O)(=O)c1ccc(F)cc1,"inconclusive: 25.1 µM [inhibitor, single point]"
22,COc1ccc(C(=O)NC(=S)Nc2cccc(NC(=O)c3ccco3)c2)cc1[N+](=O)[O-],inactive
23,COc1ccc(C2C=C(c3ccccc3)Nc3nc(NC(=O)/C=C/c4ccccc4OC)nn32)cc1 (configuration not stated),inactive

row,SMILES,Potency
1,Fc1ccc(CCNc2ncnc3[nH]ncc23)cc1,inactive
2,CN(c1ccc([N+](=O)[O-])cc1/C=N/NC(=O)COc1ccccc1)C1CCCCC1,inactive
3,COc1ccc(C2=NN(C(=O)COC(=O)c3ccc(S(C)(=O)=O)c([N+](=O)[O-])c3)C(c3ccco3)C2)cc1 (configuration not stated),active: 8.91 µM
4,O=C(Cc1ccc(Cl)cc1)N/N=C/c1ccc(O)c(O)c1,"inconclusive: 15.8 µM [inhibitor, single point]"
5,Cc1ccnc2nc(NC(=O)c3ccccc3Cl)nn12,"inconclusive: 1.41 µM [inhibitor, partial curve, poor fit]"
6,Cn1ccnc1SCC(=O)Nc1cccc2ccccc12,"inconclusive: 6.31 µM [inhibitor, single point]"
7,COC(=O)c1scc(-c2ccccc2)c1S(=O)(=O)Nc1ccc(C)c(Cl)c1,"inconclusive: 22.4 µM [inhibitor, single point]"
8,Cc1cc(C)c2sc(N(CCCN(C)C)C(=O)c3ccc(S(=O)(=O)N4CCCc5ccccc54)cc3)nc2c1,"inconclusive: 35.5 µM [inhibitor, single point]"
9,CCOc1ccc(NC(=O)c2c(NCc3cccs3)sc3c2CCCCC3)cc1,"inconclusive: 7.94 µM [inhibitor, partial curve, poor fit]"
10,Cc1cc(C)c2c(=O)n(CC(=O)Nc3cccc(Cl)c3C)sc2n1,"inconclusive: 14.1 µM [inhibitor, single point]"
11,CCOC(=O)CSc1nc2ccccc2n1CC(=O)N1CCN(c2ccccc2)CC1,"inconclusive: 22.4 µM [inhibitor, single point]"
12,CC(C)(C)C1C/C(=C/c2ccco2)C(=O)/C(=C/c2ccco2)C1 (configuration not stated),"inconclusive: 20 µM [inhibitor, single point]"
13,Cc1nn(Cc2ccccc2)c(Cl)c1C(=O)NCCc1ccc(Cl)cc1,"inconclusive: 35.5 µM [inhibitor, single point]"
14,CCC(C)(C)NC(=O)C(c1ccc(C)o1)N(Cc1cccs1)C(=O)Cn1nnc2ccccc21 (configuration not stated),"inconclusive: 35.5 µM [inhibitor, single point]"
15,CN(C)C(=S)Nc1nc2ccccc2s1,"inconclusive: 3.16 µM [inhibitor, single point]"
16,[O-][n+]1c2ccccc2c2n1CCN1CCOC21c1ccc(Cl)cc1 (configuration not stated),inactive
17,COc1ccc(Cn2c(CCC(=O)Nc3ccc(OC)c(Cl)c3)nc3cccnc32)cc1,"inconclusive: 35.5 µM [inhibitor, single point]"
18,COc1ccc(S(=O)(=O)N2CCN(Cc3cccc(F)c3)CC2)cc1,inactive
19,CCOC(=O)c1ccc(NC(=O)c2nc[nH]c2C(=O)N[C@@H](CCCCNC(=O)OC(C)(C)C)C(=O)OC(C)(C)C)cc1,"inconclusive: 12.6 µM [inhibitor, partial curve, poor fit]"
20,Cc1onc(-c2c(F)cccc2Cl)c1C(=O)O/N=C(\N)c1ccc([N+](=O)[O-])o1,"inconclusive: 35.5 µM [inhibitor, partial curve, poor fit]"
21,CCc1cccc2c(C(=O)CN3C(=O)NC4(CCc5ccccc54)C3=O)c[nH]c12 (configuration not stated),"inconclusive: 35.5 µM [inhibitor, single point]"
